Source: PubChem BioAssay AID624296 (National Center for Advancing Translational Sciences (NCATS), 2012)
Among all 350,000 compounds or so, about 9,900 (2.8%) were called active. This list was built around the results that the source calls inconclusive (neither active nor inactive); the mix of calls is not that of the screen. Calls follow the shape of the dose curve; as a rule, active = well fitted activation curve with a large enough effect; inconclusive = small, poorly fitted or top-dose-only effect; inactive = no such curve, though single readings can be large or run the other way. No potency is given beside an inconclusive call; the fits are too rough.

experiment: A quantitative high throughput screen for small molecules that induce DNA re-replication in MCF 10a normal breast cells.; also: nearly all actives have a fitted effect of over 50% in size; as to activity, positive = re-replication: % of control where 0% means no effect; conditions: MCF 10A DNA re-replication, Hoechst nuclear intensity, 48 h; activity, positive = re-replication: at 46.1 µM (top of the series)
Potency is read from the fitted curve at half-maximal effect; tags tell the direction and shape of the fitted curve.

Row | SMILES | activity, positive = re-replication | Potency
1 | Cc1ccc(N2C(=O)c3cccc4cccc(c34)C2=O)cc1 | inactive: 0.731% | –
2 | N=c1c(C(=O)NCCN2CCOCC2)cc2c(=O)n3ccccc3nc2n1CCCN1CCOCC1 | – | active: 0.184 µM
3 | Cc1cccc(NC(=S)NC(=O)CCc2ccccc2)c1 | – | inconclusive [activator, single point]
4 | Cn1cnnc1Sc1ccc(/C=C/C(=O)c2ccc(O)cc2)cc1[N+](=O)[O-] | – | inconclusive [activator, single point]
5 | CCOc1cccc(C(=O)Nc2ccc3oc(Cc4ccc(Cl)cc4)nc3c2)c1 | – | inconclusive [activator, single point]
6 | CC(=O)c1cc(Cl)ccc1OCc1cccc(S(=O)(=O)N2CCOCC2)c1 | inactive: 12.9% | –
7 | Cc1ccc(Cn2ncc(Cl)c(Cl)c2=O)cc1 | – | inconclusive [activator, full curve]
8 | O=C(c1ccc(Cl)cc1)N1CCc2ccccc21 | inactive: -13% | –
9 | CCn1ccc(C(=O)Nc2ccc(S(=O)(=O)Nc3ccccc3OC)cc2)n1 | – | inconclusive [activator, partial curve, poor fit]
10 | COc1cccc(NC(=O)N2CCC(C(=O)Nc3ccc(C)cc3C)CC2)c1 | inactive: 0.713% | –
11 | C#CCOCCOCCOCCNc1nc(N2CCN(C(=O)[C@H](CCC(=O)O)n3cc(C(N)CC(C)C)nn3)CC2)nc(N2CCN(C(=O)[C@H](Cc3cc4ccccc4[nH]3)n3cc(C(N)CC(C)C)nn3)CC2)n1 (stereo not given in full) | – | inconclusive [activator, full curve]
12 | OC(c1ccccc1)(c1ccccc1)C1CCN(C(=S)NCCc2ccccc2)CC1 | – | inconclusive [activator, partial curve, poor fit]
13 | CC(/C=N/NC(=O)c1nnn(-c2nonc2N)c1CN1CCCCC1)c1ccccc1 (stereo not given) | inactive: 2.84% | –
14 | O=C(C1CC1)N1c2ccccc2Sc2ccccc21 | – | inconclusive [activator, single point]
15 | CCOc1cc(C(=O)N2CCC(CC3CC(c4ccccc4)=NO3)(C(=O)NCc3ccc(OC)cc3)CC2)cc(OCC)c1OCC (stereo not given) | inactive: 3.34% | –
16 | CCN(CC)CC(=O)Nc1sc(C)cc1C(=O)c1ccccc1 | – | inconclusive [activator, single point]
17 | COc1ccc(NC(=O)COC(=O)CC2Sc3ccccc3NC2=O)cc1 (stereo not given) | – | inconclusive [activator, single point]
18 | CCOC(=O)Nc1ccc2c(c1)N(C(=O)CCN(CC)CC)c1ccccc1S2=O (stereo not given) | – | inconclusive [activator, single point]
19 | Cc1ccc(NC(=O)CSCC(=O)NC2(C)CCS(=O)(=O)C2)cc1 (stereo not given) | inactive: 9.33% | –
20 | O=C(NCc1ccco1)c1ccc2c(c1)N(Cc1ccc(Cl)cc1)CCS2 | – | inconclusive [activator, single point]
21 | C/C(=C\c1cccc(Br)c1)C(=O)c1c(C)cc(C)[nH]c1=O | inactive: 1.76% | –
22 | Clc1nnc(N2CCCCC2)c2ccccc12 | – | inconclusive [activator, partial curve, poor fit]
23 | Nc1ccn(C2OC(COP(=O)(O)O)C(O)C2O)c(=O)n1 (stereo not given) | – | inconclusive [activator, full curve, poor fit]

Row | SMILES | activity, positive = re-replication | Potency
24 | O=C(NN1C(=O)/C(=C/c2cccs2)SC1=S)c1ccncc1 | inactive: 8.56% | –
25 | O=C(Nc1ccc(Br)cc1)c1ccco1 | – | inconclusive [activator, full curve, poor fit]
26 | CC1CCCC(NCC(O)COC(c2ccc(F)cc2)c2ccc(F)cc2)C1C (stereo not given) | – | inconclusive [activator, partial curve, poor fit]
27 | Cc1ccc(SCc2[nH]nc3c2C2(C(=O)N(C)c4ccccc42)C(C#N)=C(N)O3)cc1 (stereo not given) | – | inconclusive [activator, single point]
28 | Nc1c(C(=O)c2ccccc2)sc2snc(SCC(=O)c3ccccc3)c12 | – | active: 16.4 µM
29 | CC(C)NCC#CCOc1ccc(Cl)cc1 | – | inconclusive [activator, single point]
30 | COc1ccc(C(=O)NC(=S)Nc2ccc3[nH]c(=O)[nH]c3c2)c(OC)c1 | inactive: 0.501% | –
31 | NCCNC(=O)c1c(O)c2cccc3c2n(c1=O)CCC3 | inactive: 1.92% | –
32 | COc1ccc(S(=O)(=O)N2CCC(C(=O)NCCN3CCOCC3)CC2)cc1 | – | inconclusive [activator, partial curve, poor fit]
33 | CC(=O)c1c(C)[nH]c(C(=O)CSc2nc3ccc(C)cc3[nH]2)c1C | – | inconclusive [activator, single point]
34 | COc1cc(C(=O)OCc2csc(CC(=O)Nc3cc(C)ccc3C)n2)ccc1OC(F)F | – | inconclusive [activator, partial curve, poor fit]
35 | CC(=O)c1c(C)[nH]c(C(=O)Nc2cccc(S(=O)(=O)N3CCCC3)c2)c1C | – | inconclusive [activator, partial curve, poor fit]
36 | N/C(Cn1cncn1)=N\OC(=O)c1ccc(Cl)cc1Cl | inactive: 0.468% | –
37 | COc1ccc(C/C(O)=C(\C#N)c2nc3ccccc3s2)cc1 | – | inconclusive [activator, single point]
38 | COc1ccc(-c2csc3nc(-c4ccccc4F)oc(=O)c23)cc1OC | – | active: 8.2 µM
39 | COc1ccc(N2C(N)=NC(N)=NC2(C)C)cc1 | – | inconclusive [activator, full curve]
40 | COc1ccc(OC)c(S(=O)(=O)Nc2ccc(Oc3ccccc3)cc2)c1 | – | inconclusive [activator, partial curve, poor fit]
41 | Cc1cc(Br)ccc1OCCN1CCCC1 | inactive: 14.6% | –
42 | Clc1ccccc1N=C1NN=C(c2cccs2)CS1 | inactive: 9.97% | –
43 | O=C1C2C3c4ccccc4C(Br)(c4ccccc43)C2C(=O)N1c1ccccc1O (stereo not given) | inactive: -6.89% | –
44 | COc1ccc(S(=O)(=O)NC(CC(=O)NCCc2ccc(OC)c(OC)c2)c2ccco2)cc1 (stereo not given) | inactive: 2.29% | –
45 | CC1CCCN(C2=C(NS(=O)(=O)c3ccc(Br)cc3)C(=O)c3ccccc3C2=O)C1 (stereo not given) | – | inconclusive [activator, single point]
